Data reported in the supplement of paper PMC12217912.
The list shows a part of the results. The full chains were built here from the parent and the listed change. Values near 0.05 are background.

B1: TEV protease; numbered along this chain (parent)
chain: MGESLFKGPRDYNPISSSICHLTNESDGHTTSLYGIGFGPFIITNKHLFRRNNGTLVVQSLHGVFKVKDTTTLQQHLVDGRDMIIIRMPKDFPPFPQKLKFREPQREERICLVTTNFQTKSMSSMVSDTSCTFPSGDGIFWKHWIQTKDGQCGSPLVSTRDGFIVGIHSASNFTNTNNYFTSVPKNFMELLTNQEAQQWVSGWRLNADSVLWGGHKVFMVKPEEPFQPVKEATQL

Variants of: B1
Assay: raw area under fraction-flipped curve 0-4 h after induction (AUC4h, not background-subtracted), DNA-recorder readout of cleavage of the substrate (dimensionless); higher = more cleavage of the substrate by the protease variant
Conditions: temperature: 34 °C; time window: 0-4 h after rhamnose induction
Method: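 In vivo DNA recorder in E. coli TOP10(DE3) ΔrhaA at 34 °C. Each TEVp single-site mutant (parent TEVp 0) is paired with a single-site variant of the 7-mer TEVs (canonical ENLYFQ|S). The substrate sits between flexible linkers in a Bxb1-sfGFP-TEVs-SsrA fusion, so cleavage stabilises Bxb1 and speeds flipping of a recombination array, read by NGS. The value is the raw area under the fraction-flipped curve over 0-4 h after rhamnose induction (AUC4h), with ≥20 reads per time point. It is not background-subtracted; inactive controls average about 0.047.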
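Also: Bxb1 expression induced with 0.2% (w/v) L-rhamnose at OD600 near 0.5, cultures sampled hourly, flipped fraction per protease–substrate barcode pair counted by paired-end Illumina sequencing.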

Variant	area with substrate ENAYFQS	area with substrate ENCYFQS	area with substrate ENDYFQS	area with substrate ENEYFQS	area with substrate ENFYFQS	area with substrate ENHYFQS	area with substrate ENIYFQS	area with substrate ENKYFQS	area with substrate ENMYFQS	area with substrate ENNYFQS	area with substrate ENQYFQS	area with substrate ENRYFQS	area with substrate ENSYFQS	area with substrate ENVYFQS	area with substrate ENYYFQS	area with substrate ENGYFQS	area with substrate ENWYFQS	area with substrate ENPYFQS	area with substrate ENTYFQS
MGESLFKGPRDYNPISSSICHLTNESDGHTTSLYGIGFGPFIITNKHLFRRNNGTLVVQSLHGVFKVKDTTTLQQHLVDGRDMIIIRMPKDFPPFPQKLKFREPQREERICLVTTNFQTKSMVSMVSDTSCTFPSGDGIFWKHWIQTKDGQCGSPLVSTRDGFIVGIHSASNFTNTNNYFTSVPKNFMELLTNQEAQQWVSGWRLNADSVLWGGHKVFMVKPEEPFQPVKEATQL [S123V]	0.0516	0.0555	0.0676	0.0707	0.0615	0.0594	0.116	0.0793	0.0796	0.0611	0.0587	0.0585	0.0522	0.0924	0.0709	–	–	–	–
MGESLFKGPRDYNPISSSICHLTNESDGHTTSLYGIGFGPFIITNKHLFRRNNGTLVVQSLHGVFKVKDTTTLQQHLVDGRDMIIIRMPKDFPPFPQKLKFREPQREERICLVTTNFQTKSMSDMVSDTSCTFPSGDGIFWKHWIQTKDGQCGSPLVSTRDGFIVGIHSASNFTNTNNYFTSVPKNFMELLTNQEAQQWVSGWRLNADSVLWGGHKVFMVKPEEPFQPVKEATQL [S124D]	0.0573	0.0712	0.0588	0.0406	0.0813	0.0561	–	0.0603	0.084	0.0594	0.0557	–	0.0553	0.0314	–	0.0498	0.0611	–	–
MGESLFKGPRDYNPISSSICHLTNESDGHTTSLYGIGFGPFIITNKHLFRRNNGTLVVQSLHGVFKVKDTTTLQQHLVDGRDMIIIRMPKDFPPFPQKLKFREPQREERICLVTTNFQTKSMSEMVSDTSCTFPSGDGIFWKHWIQTKDGQCGSPLVSTRDGFIVGIHSASNFTNTNNYFTSVPKNFMELLTNQEAQQWVSGWRLNADSVLWGGHKVFMVKPEEPFQPVKEATQL [S124E]	0.0613	–	0.0625	–	–	–	–	–	0.0905	0.0659	0.0465	–	0.0536	0.0556	–	0.0638	–	0.0514	–
MGESLFKGPRDYNPISSSICHLTNESDGHTTSLYGIGFGPFIITNKHLFRRNNGTLVVQSLHGVFKVKDTTTLQQHLVDGRDMIIIRMPKDFPPFPQKLKFREPQREERICLVTTNFQTKSMSMMVSDTSCTFPSGDGIFWKHWIQTKDGQCGSPLVSTRDGFIVGIHSASNFTNTNNYFTSVPKNFMELLTNQEAQQWVSGWRLNADSVLWGGHKVFMVKPEEPFQPVKEATQL [S124M]	0.0972	–	0.0556	0.0556	0.059	0.0529	0.13	–	–	0.0508	0.0605	–	0.061	0.0435	0.038	0.0493	–	0.052	0.0621
MGESLFKGPRDYNPISSSICHLTNESDGHTTSLYGIGFGPFIITNKHLFRRNNGTLVVQSLHGVFKVKDTTTLQQHLVDGRDMIIIRMPKDFPPFPQKLKFREPQREERICLVTTNFQTKSMSSKVSDTSCTFPSGDGIFWKHWIQTKDGQCGSPLVSTRDGFIVGIHSASNFTNTNNYFTSVPKNFMELLTNQEAQQWVSGWRLNADSVLWGGHKVFMVKPEEPFQPVKEATQL [M125K]	0.0403	0.0596	0.0553	0.0594	–	0.0587	–	0.0726	–	–	0.056	0.0527	–	0.0748	0.0469	0.0664	–	0.0613	0.0345
